The list shows a part of the results. Many values rest on one well or one pass, so single values are uncertain.
How the values were obtained:
Test in all cases: cell count relative to DMSO control; melanoma cells; higher = more viable cells
Details in all cases: library dose: standard library concentration; 72 h
[1] = tested on: G361
[2] = tested on: IPC-298
[3] = tested on: IST-MEL1
[4] = tested on: LB2518-MEL
[5] = tested on: LOXIMVI
[6] = tested on: MEL-HO
[7] = tested on: MZ2-MEL
[8] = tested on: MeWo
[9] = tested on: RPMI7951
[10] = tested on: RVH-421
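Also: cells treated in 1,536-well plates, then fixed and DAPI-stained, with nuclei counted from automated high-throughput microscope images.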

Compound | cell count [1] [%] | cell count [2] [%] | cell count [3] [%] | cell count [4] [%] | cell count [5] [%] | cell count [6] [%] | cell count [7] [%] | cell count [8] [%] | cell count [9] [%] | cell count [10] [%]
C=C(c1ccc(C(=O)O)cc1)c1cc2c(cc1C)C(C)(C)CCC2(C)C [Bexarotene] + O=C1NC(=O)/C(=C/c2ccc(-c3ccc(F)cc3O)o2)S1 [AS252424] (first compound 10 µM, partner dose 5 µM) | 78.6 | 85.2 | 94.6 | 91.6 | 127 | 79.8 | 87.4 | 79.9 | 85.4 | 99.6
CCCS(=O)(=O)Nc1ccc(F)c(C(=O)c2c[nH]c3ncc(Cl)cc23)c1F + CC(C)(C)c1cnc(CSc2cnc(NC(=O)C3CCNCC3)s2)o1 [SNS-032] (first compound 0.4 µM, partner dose 0.05 µM) | 62.7 | 67.5 | 65.7 | 65.1 | 68.7 | 82.7 | 60.5 | 84.1 | 34.6 | 64.8
NC1(c2ccc(-c3nc4ccn5c(=O)[nH]nc5c4cc3-c3ccccc3)cc2)CCC1 + C[C@]1(c2nc3c(C(N)=O)cccc3[nH]2)CCCN1 [Veliparib] (first compound 2 µM, partner dose 7 µM) | 92.5 | 91.3 | 85.8 | 74.5 | 73.5 | 76.4 | 95.4 | 77.8 | 75.7 | 67.7
CCCS(=O)(=O)Nc1ccc(F)c(C(=O)c2c[nH]c3ncc(Cl)cc23)c1F + Nc1ncn([C@H]2C[C@H](O)[C@@H](CO)O2)c(=O)n1 [decitabine] (first compound 0.4 µM, partner dose 0.5 µM) | 74.3 | 49.6 | 79.1 | 85.8 | 109 | 68.2 | 68.1 | 88 | 99.1 | 77.1
CN(c1ncccc1CNc1nc(Nc2ccc3c(c2)CC(=O)N3)ncc1C(F)(F)F)S(C)(=O)=O + OCc1c[nH]c2ccccc12 [Indole-3-carbinol] (first compound 0.4 µM, partner dose 4 µM) | 83.9 | 86.2 | 85.7 | 90.6 | 123 | 87.2 | 84.8 | 89.4 | 66.7 | 90.5
NC1(c2ccc(-c3nc4ccn5c(=O)[nH]nc5c4cc3-c3ccccc3)cc2)CCC1 + NCC(=O)Nc1ccc(-n2nc(C(F)(F)F)cc2-c2ccc3c(ccc4ccccc43)c2)cc1 [OSU03012] (first compound 2 µM, partner dose 5 µM) | 5.92 | 56.7 | 81.2 | 117 | 92 | 76.7 | 117 | 86.9 | 76.9 | 88.8
CCCS(=O)(=O)Nc1ccc(F)c(C(=O)c2c[nH]c3ncc(Cl)cc23)c1F + CC(C)CCN1c2nc(Nc3cc(F)c(O)c(F)c3)ncc2N(C)C(=O)C1C [BID1870] (first compound 0.4 µM, partner dose 1 µM) | 65.8 | 71.2 | 73.9 | 110 | 81.2 | 69.4 | 94 | 80.7 | 103 | 65.8
NC1(c2ccc(-c3nc4ccn5c(=O)[nH]nc5c4cc3-c3ccccc3)cc2)CCC1 + Clc1ccc(Nc2nnc(Cc3ccncc3)c3ccccc23)cc1 [vatalanib] (first compound 2 µM, partner dose 10 µM) | 62.1 | 49 | 52.3 | 52.9 | 43.1 | 39.9 | 50.8 | 44.8 | 67 | 58.1
NC1(c2ccc(-c3nc4ccn5c(=O)[nH]nc5c4cc3-c3ccccc3)cc2)CCC1 + NC(=O)Nc1cc(-c2cccc(F)c2)sc1C(=O)N[C@H]1CCCNC1 [AZD7762] (first compound 2 µM, partner dose 0.1 µM) | 69.4 | 84.3 | 373 | 63.4 | 63 | 65.9 | 102 | 76.3 | 48 | 483
NC1(c2ccc(-c3nc4ccn5c(=O)[nH]nc5c4cc3-c3ccccc3)cc2)CCC1 + COc1ccc(-c2ccc3c(N4CCOCC4)nc(N4C[C@@H](C)O[C@@H](C)C4)nc3n2)cc1CO [KU0063794] (first compound 2 µM, partner dose 0.1 µM) | 58.2 | 75.8 | 86.1 | 71.8 | 56.3 | 54.9 | 61 | 68.1 | 76.8 | 66.1
CCCS(=O)(=O)Nc1ccc(F)c(C(=O)c2c[nH]c3ncc(Cl)cc23)c1F + Nc1nc(F)nc2c1ncn2[C@@H]1O[C@H](CO)[C@@H](O)[C@@H]1O [fludarabine] (first compound 0.4 µM, partner dose 1 µM) | 79.4 | 61.4 | 76.6 | 118 | 147 | 79.7 | 87.6 | 104 | 47.8 | 97.5
CS(=O)(=O)c1ccc(C(=O)Nc2ccc(Cl)c(-c3ccccn3)c2)c(Cl)c1 [vismodegib] + Nc1nc(F)nc2c1ncn2[C@@H]1O[C@H](CO)[C@@H](O)[C@@H]1O [fludarabine] (first compound 5 µM, partner dose 1 µM) | 77.6 | 73.4 | 75.6 | 105 | 134 | 88.1 | 129 | 103 | 73 | 126
CCCS(=O)(=O)Nc1ccc(F)c(C(=O)c2c[nH]c3ncc(Cl)cc23)c1F + COc1cc(Nc2ncc(F)c(Nc3ccc4c(n3)NC(=O)C(C)(C)O4)n2)cc(OC)c1OC [Tamatinib] (first compound 0.4 µM, partner dose 2 µM) | 56.8 | 73.1 | 24.3 | 83 | 8.9 | 70.7 | 78.4 | 76.2 | 23.2 | 7.25
CN(c1ncccc1CNc1nc(Nc2ccc3c(c2)CC(=O)N3)ncc1C(F)(F)F)S(C)(=O)=O + NC(=O)Nc1cc(-c2cccc(F)c2)sc1C(=O)N[C@H]1CCCNC1 [AZD7762] (first compound 0.4 µM, partner dose 0.1 µM) | 80.3 | 109 | 96.4 | 102 | 64.4 | 93 | 97 | 110 | 50.1 | 127
NC1(c2ccc(-c3nc4ccn5c(=O)[nH]nc5c4cc3-c3ccccc3)cc2)CCC1 + CS(=O)(=O)CCNCc1ccc(-c2ccc3ncnc(Nc4ccc(OCc5cccc(F)c5)c(Cl)c4)c3c2)o1 [lapatinib] (first compound 2 µM, partner dose 4 µM) | 16.3 | 76.2 | 66.6 | 66.2 | 84.6 | 61 | 63.4 | 75.9 | 14.6 | 60.3
CCCS(=O)(=O)Nc1ccc(F)c(C(=O)c2c[nH]c3ncc(Cl)cc23)c1F + Oc1cc(-c2nc(-c3ccccc3)[nH]c2-c2ccncc2)ccc1Cl [L779450] (first compound 0.4 µM, partner dose 1 µM) | 59.4 | 78.2 | 89.8 | 91.1 | 130 | 93.7 | 87.4 | 74 | 94.3 | 69
CCCS(=O)(=O)Nc1ccc(F)c(C(=O)c2c[nH]c3ncc(Cl)cc23)c1F + COc1cc(N2CCC(N3CCN(C)CC3)CC2)ccc1Nc1ncc(Cl)c(Nc2ccccc2S(=O)(=O)C(C)C)n1 [NVP-TAE684] (first compound 0.4 µM, partner dose 0.4 µM) | 56.5 | 71.7 | 86.1 | 88.1 | 237 | 72.8 | 68.2 | 70 | 74.3 | 79.5
CS(=O)(=O)c1ccc(C(=O)Nc2ccc(Cl)c(-c3ccccn3)c2)c(Cl)c1 [vismodegib] + O=C(CCCCCCC(=O)Nc1ccccc1)NO [vorinostat] (first compound 5 µM, partner dose 0.4 µM) | 60 | 81.6 | 272 | 81.5 | 80.2 | 84.4 | 99 | 75.5 | 60 | 117
NC1(c2ccc(-c3nc4ccn5c(=O)[nH]nc5c4cc3-c3ccccc3)cc2)CCC1 + Nc1ccn([C@@H]2O[C@H](CO)[C@@H](O)C2(F)F)c(=O)n1 [gemcitabine] (first compound 2 µM, partner dose 0.002 µM) | 36.5 | 38.1 | 42.2 | 51.8 | 54.3 | 43.5 | 63.1 | 37 | 62.8 | 41.2
NC1(c2ccc(-c3nc4ccn5c(=O)[nH]nc5c4cc3-c3ccccc3)cc2)CCC1 + COc1cc(Nc2ncc(F)c(Nc3ccc4c(n3)NC(=O)C(C)(C)O4)n2)cc(OC)c1OC [Tamatinib] (first compound 2 µM, partner dose 2 µM) | 64.4 | 91.5 | 57.6 | 54.4 | 21.1 | 56 | 74.2 | 63.7 | 25.2 | 76
NC1(c2ccc(-c3nc4ccn5c(=O)[nH]nc5c4cc3-c3ccccc3)cc2)CCC1 + C[C@@H]1CCN(C(=O)CC#N)C[C@@H]1N(C)c1ncnc2[nH]ccc12 [CP690550] (first compound 2 µM, partner dose 5 µM) | 77.9 | 98.4 | 139 | 85.5 | 90.3 | 84.5 | 108 | 76.3 | 67.8 | 84.5
NC1(c2ccc(-c3nc4ccn5c(=O)[nH]nc5c4cc3-c3ccccc3)cc2)CCC1 + CNC(=O)c1cc(Oc2ccc(NC(=O)Nc3ccc(Cl)c(C(F)(F)F)c3)cc2)ccn1 [sorafenib] (first compound 2 µM, partner dose 2 µM) | 84.9 | 66.2 | 114 | 69.4 | 86 | 90.5 | 115 | 84.1 | 117 | 85.7
CN(c1ncccc1CNc1nc(Nc2ccc3c(c2)CC(=O)N3)ncc1C(F)(F)F)S(C)(=O)=O + Oc1cc(-c2nc(-c3ccccc3)[nH]c2-c2ccncc2)ccc1Cl [L779450] (first compound 0.4 µM, partner dose 1 µM) | 41.4 | 69.7 | 77.5 | 83.5 | 92.1 | 80.2 | 72.9 | 83.8 | 56.1 | 78.6
